{"source": "PubChem BioAssay AID1768", "about": "(National Center for Advancing Translational Sciences (NCATS), 2009)", "note": "Hit rate of the full screen: of about 270,000 compounds, about 620 (0.23%) were called active. The shares of active, inactive and inconclusive entries below differ from those in the screen. The call rests on the fitted dose curve; in most records, active means well fitted inhibition curve with a large enough effect in the polarisation, with a control signal flat (not every such curve was filed as active); inconclusive means small, poorly fitted or top-dose-only effect, or effect the other way, or a change in a side signal; inactive means no such curve, though single readings can be large or run the other way; the % refers to the polarisation. A potency beside an inconclusive call is a rough fit, not a confirmed value. “Side channel” marks fits to a control or component signal instead of the main read-out. Potency means the concentration at half of the fitted maximal effect; tags describe the fitted curve by direction and shape or compound fluorescence and quenching."}
{"molecular_target": "Menin (Homo sapiens) (UniProt O00255)", "sequence (O00255 whole entry, looked up)": "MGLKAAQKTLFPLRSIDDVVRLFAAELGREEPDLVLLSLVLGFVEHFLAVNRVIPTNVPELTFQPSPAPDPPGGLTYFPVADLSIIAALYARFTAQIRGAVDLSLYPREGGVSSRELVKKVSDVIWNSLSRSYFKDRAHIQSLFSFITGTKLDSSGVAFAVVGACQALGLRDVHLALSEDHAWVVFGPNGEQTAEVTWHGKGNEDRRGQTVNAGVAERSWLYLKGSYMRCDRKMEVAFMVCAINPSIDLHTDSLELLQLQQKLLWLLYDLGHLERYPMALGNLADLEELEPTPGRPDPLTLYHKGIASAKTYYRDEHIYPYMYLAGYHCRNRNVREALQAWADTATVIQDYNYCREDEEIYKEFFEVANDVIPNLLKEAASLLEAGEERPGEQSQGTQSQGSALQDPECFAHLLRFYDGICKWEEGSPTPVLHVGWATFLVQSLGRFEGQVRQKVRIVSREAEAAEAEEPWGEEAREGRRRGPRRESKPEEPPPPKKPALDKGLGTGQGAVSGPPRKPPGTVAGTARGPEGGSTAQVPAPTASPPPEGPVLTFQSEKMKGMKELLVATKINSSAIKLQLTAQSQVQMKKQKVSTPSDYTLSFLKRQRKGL", "test": "qHTS Assay for Inhibitors Targeting the Menin-MLL Interaction in MLL Related Leukemias: Competition With Texas Red Labeled MLL-derived Mutant Peptide; on FP activity change, negative = inhibition: % of control where 0% means no effect", "details": "fluorescence polarization; FP activity change, negative = inhibition: at 61.6 µM (top of the series)"}
{"compound": "CCCCN(C)Cc1c(C)[nH]c2c(ccc3ccccc32)c1=O", "Potency": "inconclusive: 39.8 µM [inhibitor, single point]"}
{"compound": "Cc1ccc(-n2[nH]c(C)c(/C=N/NC(=O)c3ccc([N+](=O)[O-])cc3)c2=O)c(C)c1", "Potency": "inconclusive: 25.1 µM [quencher, side channel, partial curve]"}
{"compound": "COc1ccc2[nH]c(=O)c(CN(CCN(C)C)C(=O)NCc3ccccc3)cc2c1", "Potency": "inactive"}
{"compound": "CSc1ccccc1N1CCN(C(=O)Nc2ccc3c(c2)NC(=O)CO3)CC1", "Potency": "inconclusive: 4.47 µM [inhibitor, single point]"}
{"compound": "CC(C)C(=O)Nc1ccccc1C(=O)N/N=C/c1ccc([N+](=O)[O-])cc1", "Potency": "inconclusive: 25.1 µM [quencher, side channel, partial curve]"}
{"compound": "CC1NC(=O)NC1CCCCC(=O)O", "note": "(configuration not stated)", "Potency": "inactive"}
{"compound": "Cc1nn(-c2cccc(C(F)(F)F)c2)c(Cl)c1/C=N/Nc1cccc(C(=O)O)c1", "Potency": "inconclusive: 15.8 µM [quencher, side channel, partial curve]"}
{"compound": "COc1ccc(/C=N/N(Cc2ccccc2)c2ccccc2)cc1O", "Potency": "inconclusive: 25.1 µM [quencher, side channel, partial curve]"}
{"compound": "COc1ccc(CC(=O)N(Cc2cc3cc(OC)ccc3[nH]c2=O)C(C)C)cc1", "Potency": "inactive"}
{"compound": "COc1cccc(Oc2cc(NN3CCCCC3)c([N+](=O)[O-])cc2[N+](=O)[O-])c1OC", "Potency": "inconclusive: 22.4 µM [quencher, side channel, single point]"}
{"compound": "O=C(CCCc1c[nH]c2ccccc12)Nc1ccc2ccccc2c1", "Potency": "inconclusive: 14.1 µM [quencher, side channel, partial curve]"}
{"compound": "Cc1nc(N)sc1C(=O)N/N=C/c1c[nH]c2ccccc12", "Potency": "inconclusive: 17.8 µM [quencher, side channel, partial curve]"}
{"compound": "COc1ccccc1CNC(=O)CSc1nnc2c(n1)[nH]c1ccc(F)cc12", "Potency": "inconclusive: 39.8 µM [fluorescent, side channel, single point]"}
{"compound": "CCN1/C(=C/C=C/c2oc3ccc4ccccc4c3[n+]2CC)Oc2ccc3ccccc3c21", "Potency": "inconclusive: 3.55 µM [fluorescent, side channel, full curve]"}
{"compound": "COc1ccc(/C=C/C(=O)Nc2ccc(OC)cc2[N+](=O)[O-])cc1", "Potency": "inactive"}
{"compound": "COc1cccc(CCc2ccccc2OCC(CN(C)C)OC(=O)CCC(=O)O)c1", "note": "(configuration not stated)", "Potency": "inactive"}
{"compound": "Cc1[nH]n(C(N)=S)c(=O)c1N=Nc1cccc(Cl)c1", "Potency": "inconclusive: 8.91 µM [quencher, side channel, partial curve]"}
{"compound": "COc1ccccc1N1CCN(C(=O)c2cc(=O)c3cc(C)ccc3o2)CC1", "Potency": "inconclusive: 10 µM [inhibitor, partial curve]"}
{"compound": "Cc1ccc(C(NC(=O)N2CCOCC2)=C(Cl)Cl)cc1F", "Potency": "inconclusive: 12.6 µM [inhibitor, partial curve, poor fit]"}
{"compound": "O=C(O)c1ccc(Cl)cc1Nc1nc2cc(Cl)ccc2o1", "Potency": "inconclusive: 14.1 µM [quencher, side channel, partial curve]"}
{"compound": "CCc1nnc(NS(=O)(=O)c2ccc(NC(=O)Nc3ccc(OC)cc3)cc2)s1", "Potency": "inconclusive: 14.1 µM [quencher, side channel, partial curve]"}
{"compound": "CNc1ccc(Br)cc(C(=O)/C=C/c2cccc(OC)c2OC)c1=O", "Potency": "inconclusive: 35.5 µM [quencher, side channel, single point]"}
{"compound": "CCN(CC)c1ccc(/C=N/NC(=S)NCc2ccco2)cc1", "Potency": "inconclusive: 25.1 µM [quencher, side channel, single point]"}
{"compound": "CC(=O)N1N=C(c2cccs2)CC1c1ccc(Br)cc1", "note": "(configuration not stated)", "Potency": "inconclusive: 20 µM [fluorescent, side channel, partial curve, poor fit]"}
{"compound": "Cc1cc(N)n2ncc(-c3ccccc3)c2n1", "Potency": "inconclusive: 31.6 µM [quencher, side channel, single point]"}
{"compound": "CC(NC1CCCCC1)C(=O)NN=C(c1ccccc1)c1ccccc1", "note": "(configuration not stated)", "Potency": "inconclusive: 39.8 µM [fluorescent, side channel, partial curve]"}
{"compound": "CC(=O)c1ccc(N2CCN(C(=O)Nc3ccc(C(C)C)cc3)CC2)cc1", "Potency": "inactive"}
{"compound": "CCCC(C)c1nnc(NC(=O)c2cc(C(=O)OC)cc([N+](=O)[O-])c2)s1", "note": "(configuration not stated)", "Potency": "inconclusive: 20 µM [quencher, side channel, partial curve]"}
{"compound": "Cc1ccc(-c2csc(NC(=S)NC(=O)/C=C/c3ccco3)n2)cc1", "Potency": "inconclusive: 10 µM [quencher, side channel, partial curve]"}
{"compound": "CCOC(=O)N1CCN(C(=O)CCCn2nnnc2CN2CCC(C)CC2)CC1", "Potency": "inactive"}
{"compound": "Cc1cc(NC(=O)COC(=O)c2n[nH]c3ccccc23)no1", "Potency": "inconclusive: 3.55 µM [inhibitor, full curve]"}
{"compound": "CC(=O)Nc1ccc(C(=O)OCc2ccc(Br)cc2)cc1", "Potency": "inconclusive: 35.5 µM [quencher, side channel, single point]"}
{"compound": "CN(CC(=O)Nc1cccc(S(=O)(=O)N(C)C)c1)Cc1ccccc1", "Potency": "inconclusive: 3.98 µM [fluorescent, side channel, single point]"}
{"compound": "COc1cc(C(=O)Nc2c(C(=O)O)[nH]c3ccccc23)cc(OC)c1OC", "Potency": "inconclusive: 28.2 µM [quencher, side channel, partial curve]"}
{"compound": "CCc1nnc(NS(=O)(=O)c2ccc(N=Cc3c(C)[nH]n(-c4ccc(C)c(C)c4)c3=O)cc2)s1", "Potency": "inconclusive: 20 µM [quencher, side channel, partial curve]"}
{"compound": "O=C(Nc1ccc2snnc2c1)N1CCN(c2ccccc2)CC1", "Potency": "inconclusive: 11.2 µM [quencher, side channel, partial curve]"}
{"compound": "O=C(Nc1cccc(NC(=O)c2ccccc2)n1)c1ccccc1", "Potency": "inconclusive: 35.5 µM [quencher, side channel, single point]"}
{"compound": "CCCCc1nc2c(c3c1C[C@H](C)OC3)CN(S(=O)(=O)c1ccc(Cl)c3nonc13)CC2", "FP activity change, negative = inhibition": "inactive: -0.896% [at 11.7 µM]"}
{"compound": "CC(C)c1ccc(NC(=O)N2CCC(c3nc4ccccc4o3)CC2)cc1", "Potency": "inactive"}
{"compound": "COc1cc(OC)c(OC)cc1CCC(C)NC(=O)Cc1ccccc1", "note": "(configuration not stated)", "Potency": "inconclusive: 28.2 µM [inhibitor, partial curve]"}
{"compound": "O=C1/C(=C\\c2cc(Cl)c(O)c(Cl)c2)SC(=S)N1Cc1ccccc1", "Potency": "inconclusive: 39.8 µM [fluorescent, side channel, single point]"}
{"compound": "C/C(=N\\NC(=O)c1ccc(C)cc1)C1C(=O)c2ccccc2C1=O", "Potency": "inconclusive: 17.8 µM [quencher, side channel, partial curve]"}
{"compound": "Fc1ccc2nc(Nc3nc4cc5c(cc4s3)OCCO5)sc2c1", "Potency": "inconclusive: 20 µM [quencher, side channel, partial curve]"}
{"compound": "CCOC(=O)c1ccc(NC(=O)Cn2ncc(Cl)c(Cl)c2=O)cc1", "Potency": "inconclusive: 11.2 µM [quencher, side channel, partial curve]"}
{"compound": "CCOC(=O)C1CCCN(C(=O)CN2C(=O)COc3ccc(C(C)(C)C)cc32)C1", "note": "(configuration not stated)", "Potency": "inconclusive: 17.8 µM [fluorescent, side channel, partial curve]"}
{"compound": "Cc1ccc(C(=O)N/C(=C/c2cccs2)C(=O)NCCc2c[nH]c3ccccc23)cc1", "Potency": "inconclusive: 39.8 µM [inhibitor, single point]"}
{"compound": "CCNC(=S)NNC(=O)c1cc(-c2ccc(OC)cc2)nc2ccccc12", "Potency": "inconclusive: 39.8 µM [quencher, side channel, single point]"}
{"compound": "O=C(CSc1nnc(-c2ccccc2)c(-c2ccccc2)n1)Nc1ccc(Br)cn1", "Potency": "inconclusive: 22.4 µM [inhibitor, single point]"}
{"compound": "COc1ccc(-n2c(C)cc(/C=C3\\C(=N)N4N=C(CC(=O)N5CCOCC5)SC4=NC3=O)c2C)c(OC)c1", "Potency": "inconclusive: 20 µM [quencher, side channel, single point]"}
{"compound": "O=C(O)c1cc(-c2ccc(-c3c(-c4ccc5c(c4)OCO5)noc3-c3ccsc3)cc2)nc2ccccc12", "Potency": "inconclusive: 10 µM [quencher, side channel, partial curve]"}
{"compound": "COC(=O)c1ccc(NC(=O)c2ccccc2NS(=O)(=O)c2ccccc2)cc1", "Potency": "inconclusive: 10 µM [quencher, side channel, partial curve]"}
{"compound": "COc1ccc(/C=N/NC(=O)c2ccc(NC(=O)c3cccc([N+](=O)[O-])c3)cc2)c(C(=O)O)c1OC", "Potency": "inconclusive: 17.8 µM [quencher, side channel, partial curve]"}
{"compound": "O=C(c1cccnc1)N1CCN(Cc2ccc3ccccc3c2)CC1", "Potency": "inconclusive: 39.8 µM [fluorescent, side channel, single point]"}
{"compound": "CSc1nc(N)nc(SCCS(=O)(=O)c2ccc(Cl)cc2)c1C#N", "Potency": "inconclusive: 14.1 µM [quencher, side channel, partial curve]"}
{"compound": "COc1ccccc1N(C(=O)c1snc(C(N)=O)c1N)C(C(=O)NC1CCCC1)c1ccco1", "note": "(configuration not stated)", "Potency": "inconclusive: 20 µM [fluorescent, side channel, single point]"}
{"compound": "O=C(Oc1ccccc1Cl)c1ccc(-n2cncn2)nc1", "Potency": "inconclusive: 25.1 µM [inhibitor, single point]"}
{"compound": "COc1ccc2c(c1)C(NC(=O)C(F)(F)F)CC2=O", "note": "(configuration not stated)", "Potency": "inactive"}
